Experimental data: PubChem BioAssay AID1508623 (National Center for Advancing Translational Sciences (NCATS), 2021)
About 450 (0.94%) of roughly 48,000 compounds were called active. The shares of active, inactive and inconclusive entries below differ from those in the screen. Calls follow the shape of the dose curve; as a rule, active = well fitted inhibition curve with a large enough effect; inconclusive = small, poorly fitted or top-dose-only effect; inactive = no such curve, though single readings can be large or run the other way. Potencies of inconclusive entries are doubtful fits and often do not repeat.

Experiment: Primary qHTS for Identification of Small Molecule Inhibitors of Huntingtin Promoter Activity; also: nearly all actives have a fitted effect of over 50% in size
Details: HEK293 HTT promoter firefly luciferase reporter (activity 0% = vehicle and -100% = no light), 24 h; activity change, negative = inhibition: at 57.5 µM (top of the series)
Outline: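 Firefly luciferase readout (Dual-Glo, 10 min RT) after 24 h, 37 °C compound exposure (final up to 57.5 uM) of HEK293 reporter cells cultured 24 h beforehand; PTC124 at 50 uM final as control inhibitor; activity scaled vehicle 0%, zero RLU -100%.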
Potency is read from the fitted curve at half-maximal effect; tags tell the direction and shape of the fitted curve.

Activity change, negative = inhibition, inactive:
C#C[C@]1(O)CC[C@@H]2[C@@H]3CCc4cc(O)ccc4[C@H]3CC[C@@]21C -25.5%, Cc1cc(CN2CCN(c3cccc(C)c3C)CC2)cs1 -7.96%, CCc1ccc(CNC(=O)c2cc3ccccn3n2)cc1 11.5%, CCN(CCCc1ccccc1)CCCc1ccccc1 -0.826%, Cc1c(-c2cccc(NC(=O)Nc3ccc(Cl)cc3)c2)nc2ncccn12 -18.1%, COc1ccc(CN(C(=O)c2cc3ccccc3oc2=O)C2CCS(=O)(=O)C2)cc1OC (stereo not given) 48.5%, Cc1ccc2c(c1)-c1c(cnn1CC(=O)N1CCN(c3ccccc3F)CC1)CO2 -13.2%, COc1cc2c(cc1OC)CN(CCc1ccc(NC(=O)c3cccc4c(=O)c5cccc(OC)c5[nH]c34)cc1)CC2 -6.26%, Cc1cc(N2CCN(C)CC2)nc2ccc(NC(=O)Nc3cccc(Cl)c3)cc12 6.78%, COc1ccc(-n2nc(CCC(=O)N(C)O)cc2-c2ccc(Cl)cc2)cc1 -13%, Cc1cccc(NC(=O)Cn2nc3c4ccccc4n(Cc4ccccc4)cc-3c2=O)c1 -7.83%, O=C(O)CCC=CCC[C@@H]1[C@H](N2CCCCC2)[C@@H](O)C[C@@H]1OCc1ccc(-c2ccccc2)cc1 8.16%, O=C(CN1CCN(Cc2ccccc2Cl)C1=O)NCCc1ccc(Cl)cc1 -17.5%, O=C(O)c1ccc(NC(=O)c2ccc(Br)c(S(=O)(=O)N3CCCC3)c2)cc1 -7.76%, Cc1cccc(CNC(=O)CN2C(=O)CCn3nc(-c4cn(C)c5ccccc45)cc32)c1 -16.2%

Potency, inconclusive:
CC(C)CC(=O)Nc1cc(-c2ccccc2F)nn1-c1ccccc1 3.16 µM [inhibitor, full curve, poor fit], CC(=O)c1ccc(NS(=O)(=O)c2ccc(-c3cnc(C4CC4)o3)cc2)cc1 39.8 µM [inhibitor, single point], Cc1ccc(CNC(=O)c2cnn(-c3cccc(C)c3)c2C2CCN(C(=O)OC(C)(C)C)CC2)cc1 31.6 µM [inhibitor, single point], CCCCc1nn2c(=O)cc(COC(=O)c3ccc(NC(=O)C(CC)CC)cc3)nc2s1 3.16 µM [inhibitor, single point], CCC1CCCCN1S(=O)(=O)c1cc(C(=O)Nc2ccc(C)c(F)c2)ccc1F (stereo not given) 17.8 µM [inhibitor, partial curve, poor fit], CCc1ccccc1NC(=O)c1nnn(Cc2ccc(Cl)cc2)c1N 25.1 µM [inhibitor, single point], CCOC(=O)C1=C(CN2CCN(c3ccc(OC)cc3)CC2)NC(=O)NC1c1ccc(Cl)cc1 (stereo not given) 22.4 µM [inhibitor, single point], Cc1ccc(Cn2cc(C(=O)c3ccc4c(c3)OCO4)c(=O)c3cc(C)ccc32)cc1 28.2 µM [inhibitor, single point], Cc1ccc(CNc2oc(-c3ccc(COc4ccc(C)cc4)o3)nc2C#N)cc1 31.6 µM [inhibitor, single point], CCOC(=O)C1CCCN(C(=O)Cn2ncc3c(C)n(Cc4ccccc4Cl)c(C)c3c2=O)C1 (stereo not given) 15.8 µM [inhibitor, partial curve, poor fit], O=C(Nc1ccc(Cl)cc1F)c1cnc2sc(N3CCOCC3)nn2c1=O 25.1 µM [inhibitor, partial curve, poor fit], Cc1ccc2nc(NC(=O)CSc3nccn3-c3ccc(Cl)cc3)sc2c1 39.8 µM [inhibitor, single point], Cc1cccc(Cn2c(SCc3ccc(C(=O)NCc4ccccc4F)cc3)nc3ccncc32)c1 20 µM [inhibitor, partial curve], Cc1ccc(NC(=O)Cn2c(=O)oc3cc(S(=O)(=O)N4CCCCC4)ccc32)c(Cl)c1 8.91 µM [inhibitor, full curve, poor fit], CC1CCCCN1C(=O)Cn1ncc2c3ccccc3n(Cc3ccccc3F)c2c1=O (stereo not given) 35.5 µM [inhibitor, single point], CCCCN(CCCNC(=O)CN1N=C(c2ccc(C)cc2)CCC1=O)c1ccccc1 22.4 µM [inhibitor, single point], COc1cccc(OCC(=O)NCCS(=O)(=O)N2CCN(c3ccccc3F)CC2)c1 44.7 µM [inhibitor, single point], CCN(CC)C(=O)CSc1nc2ccsc2c(=O)n1Cc1ccccc1Cl 10 µM [inhibitor, single point], Cc1ccccc1Nc1nn2c(=O)c3ccc(C(=O)NCCc4ccc(Cl)cc4)cc3nc2s1 17.8 µM [inhibitor, partial curve, poor fit], CC(C)C1C(=O)Nc2ccc(S(=O)(=O)NCCc3ccc(Cl)cc3)cc21 (stereo not given) 25.1 µM [inhibitor, partial curve, poor fit], Cc1ccsc1CN(C(=O)c1oc2ccc(Br)cc2c1C)C1CCS(=O)(=O)C1 (stereo not given) 35.5 µM [inhibitor, single point], CCOc1ccc(Nc2c(S(=O)(=O)c3ccc(Cl)cc3)cnc3ccc(OCC)cc23)cc1 35.5 µM [inhibitor, partial curve, poor fit], CCN1c2ccccc2-c2nc(SCC(=O)NCc3ccc(Cl)cc3)ncc2S1(=O)=O 28.2 µM [inhibitor, partial curve], O=C(CC1C(=O)N(c2ccccc2)C(=O)N1CCc1cccs1)Nc1ccc(F)cc1 (stereo not given) 35.5 µM [inhibitor, partial curve, poor fit], O=C(Cn1c(=O)nc(-c2ccccc2)c2cc(Cl)ccc21)N1CCN(c2ccccc2F)CC1 39.8 µM [inhibitor, single point], COc1ccc2c(c1)CC(C(=O)NCCCN1CCN(c3cccc(Cl)c3)CC1)CO2 (stereo not given) 28.2 µM [inhibitor, partial curve], CCc1ccc(CN2CCc3nc(N4CCN(c5ccccc5F)CC4)ncc3C2)cc1 8.91 µM [inhibitor, partial curve, poor fit], CC(c1ccccc1)n1cc2c(c1-c1ccccc1Br)c(=O)n(C)c(=O)n2C (stereo not given) 28.2 µM [inhibitor, single point], Cc1ccc(Cl)cc1N1CCN(C(=O)c2ccc3c(c2)CCN3S(=O)(=O)c2ccccc2)CC1 15.8 µM [inhibitor, partial curve, poor fit], Cc1ccc(-c2nnc(Nc3cccc(O)c3)c3ccccc23)cc1S(=O)(=O)NCC1CCCO1 (stereo not given) 35.5 µM [inhibitor, single point], O=C(NCCc1ccccc1)c1ccc2c(c1)N(Cc1ccccc1)C(=O)c1ccccc1S2(=O)=O 3.55 µM [inhibitor, single point], O=C(NCCc1ccccc1)C1CCN(Cc2cc3ccccc3n2Cc2cccc(Cl)c2)CC1 39.8 µM [inhibitor, single point], CCOC(=O)CN(Cc1ccccc1)C(C(=O)NC1CCCCC1)c1ccc(OC)cc1 (stereo not given) 35.5 µM [inhibitor, single point], COc1cccc(Nc2sc(C(=O)c3ccc(Cl)cc3)c(N)c2C(=O)NCc2ccc(C)cc2)c1 10 µM [inhibitor, partial curve, poor fit], COc1cccc(CNC(=O)c2ccc3c(=O)n4nc(Nc5ccccc5)sc4nc3c2)c1 1 µM [inhibitor, full curve], COc1cc(OC)c(N(C)C(=O)c2cn(C3CCCC3)c(=O)c3c2c2ccccc2n3C)cc1Cl 28.2 µM [inhibitor, single point], CN(Cc1ccccc1)S(=O)(=O)c1ccc2[nH]c3c(c2c1)CCCCC3 35.5 µM [inhibitor, single point], O=C(Nc1ccc(Cl)cc1)c1cc(S(=O)(=O)NC2CCCCCC2)ccc1F 39.8 µM [inhibitor, single point], COC(=O)c1ccc2c(c1)N(Cc1ccccc1)C(=O)c1ccccc1S2(=O)=O 31.6 µM [inhibitor, single point], Cc1ccc(SCc2nc(-c3ccc(C(=O)NCC(C)c4ccccc4)cc3)oc2C)cc1 (stereo not given) 22.4 µM [inhibitor, partial curve, poor fit], Cc1c(O)cccc1C(=O)N[C@@H](CSc1ccccc1)[C@H](O)CN1C[C@H]2CCCC[C@H]2C[C@H]1C(=O)NC(C)(C)C 22.4 µM [inhibitor, partial curve], CCN(c1ccccc1)S(=O)(=O)c1ccc(NC(=O)c2nc(SC(C)C)ncc2Cl)cc1 17.8 µM [inhibitor, partial curve, poor fit], CCOC(=O)c1cnc2ccc(OCC)cc2c1Nc1ccc(OCc2ccccc2Cl)cc1 28.2 µM [inhibitor, partial curve, poor fit], CC(=O)c1cc(-c2ccc(F)cc2)n(CCC(=O)Nc2nc3ccc(C)cc3s2)c1C 20 µM [inhibitor, single point], CC1(C)CC(=O)c2c(C(F)(F)F)nn(-c3ccc(C(N)=O)c(NC4CCC(O)CC4)c3)c2C1 (stereo not given) 0.544 µM [inhibitor, full curve]
